Experimental data taken from the supplement of paper PMC4967469.
IC50 is the fitted dose that halves viability relative to control wells, and lower means more sensitive; fits outside the tested doses are given as limits. AUC sums up the same curve from the lowest dose to the 256-fold higher top dose; the more sensitive the line, the further below 1. For some of these results: Any top dose called inferred comes from the curve model; the source does not state it. For some of these results: An entry number marks a drug with two screens in the source, which often give different values.

Key:
Test in all cases: Viability of human cancer cell lines after 72 h of drug (GDSC screen)
PI-103 = compound: Oc1cccc(-c2nc(N3CCOCC3)c3oc4ncccc4c3n2)c1 [PI-103]; details: top dose 10.24 µM
Description: (§1)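 Human cancer cell lines in 384-well plates, medium with 10% serum, drug for 72 h over a 256-fold dose range (nine 2-fold or five 4-fold steps up to the top dose). Adherent lines were fixed and stained with the nucleic acid dye Syto60, suspension lines read with resazurin; signal relative to control wells, capped at 0 and 100%. One two-parameter sigmoid per drug and line, fitted in a mixed model over all curves with the slope shared within a line.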

WH-4-023 = compound: COc1ccc(N(C(=O)Oc2c(C)cccc2C)c2ccnc(Nc3ccc(N4CCN(C)CC4)cc3)n2)c(OC)c1 [WH-4-023]; details: top dose 5.12 µM; top dose inferred
Description: as §1

Tretinoin = compound: CC1=C(/C=C/C(C)=C/C=C/C(C)=C/C(=O)O)C(C)(C)CCC1 [Tretinoin]; details: top dose 10 µM; top dose inferred
Description: as §1

GSK690693 = compound: CCn1c(-c2nonc2N)nc2c(C#CC(C)(C)O)ncc(OC[C@H]3CCCNC3)c21 [GSK690693]; details: top dose 10.24 µM; top dose inferred
Description: as §1

UNC0638 = compound: COc1cc2c(NC3CCN(C(C)C)CC3)nc(C3CCCCC3)nc2cc1OCCCN1CCCC1 [UNC0638]
Description: as §1

BX-795 = compound: O=C(NCCCNc1nc(Nc2cccc(NC(=O)N3CCCC3)c2)ncc1I)c1cccs1 [BX-795]; details: top dose 5 µM; top dose inferred
Description: as §1

SB-505124 = compound: Cc1cccc(-c2[nH]c(C(C)(C)C)nc2-c2ccc3c(c2)OCO3)n1 [SB-505124]; details: top dose 10 µM; top dose inferred
Description: as §1

[1] = top dose 40 µM, screen: GDSC drug entry 245
[2] = top dose 20 µM, screen: GDSC drug entry 1236, top dose inferred

Cell Line | AUC (PI-103) | IC50 (PI-103) [µM] | AUC (WH-4-023) | IC50 (WH-4-023) [µM] | AUC (Tretinoin) | IC50 (Tretinoin) [µM] | AUC (GSK690693) | IC50 (GSK690693) [µM] | AUC (UNC0638; [1]) | IC50 (UNC0638; [1]) [µM] | AUC (BX-795) | IC50 (BX-795) [µM] | AUC (SB-505124) | IC50 (SB-505124) [µM] | AUC (UNC0638; [2]) | IC50 (UNC0638; [2]) [µM]
MY-M12 (leukaemia, suspension) | 0.308 | 0.172 | 0.249 | 0.0545 | 0.978 | > 10 | 0.807 | 6.12 | 0.444 | 1.72 | 0.799 | 2.77 | – | – | – | –
NALM-6 (B-cell leukaemia, suspension) | – | – | 0.902 | 4.78 | 0.978 | > 10 | 0.25 | 0.142 | 0.42 | 1.57 | 0.588 | 0.522 | 0.974 | > 10 | 0.776 | 6.71
NB17 (neuroblastoma, adherent) | 0.446 | 0.445 | 0.818 | 3.44 | 0.973 | > 10 | 0.801 | 5.9 | 0.724 | 12.1 | 0.865 | > 5 | – | – | – | –
NB69 (neuroblastoma, adherent) | 0.596 | 1.14 | 0.963 | > 5.12 | 0.976 | > 10 | 0.981 | > 10.2 | 0.931 | > 40 | 0.709 | 1.12 | – | – | 0.809 | 9
NCI-H64 (small cell lung carcinoma, suspension) | 0.146 | 0.0814 | 0.996 | > 5.12 | 0.996 | > 10 | 0.01 | < 0.04 | 0.759 | 10.8 | 0.934 | 4.73 | – | – | – | –
NCI-H510A (small cell lung carcinoma, semi-adherent) | 0.884 | 9.45 | 0.968 | > 5.12 | 0.979 | > 10 | 0.99 | > 10.2 | 0.725 | 10.2 | 0.897 | > 5 | – | – | – | –
NCI-H1417 (small cell lung carcinoma, suspension) | – | – | 0.97 | > 5.12 | 0.89 | > 10 | 0.943 | > 10.2 | 0.632 | 6.21 | 0.809 | 3.23 | 0.905 | > 10 | 0.477 | 1.07
NCI-H1581 (large cell lung carcinoma, semi-adherent) | 0.644 | 1.54 | 0.873 | 4.25 | 0.99 | > 10 | 0.987 | > 10.2 | 0.863 | 30.2 | – | – | 0.968 | > 10 | 0.981 | > 20
NCI-H1666 (lung adenocarcinoma, semi-adherent) | 0.932 | > 10.2 | 0.985 | > 5.12 | 0.943 | > 10 | 0.972 | > 10.2 | 0.777 | 17.7 | – | – | 0.985 | > 10 | 0.723 | 5.73
NTERA-2 cl.D1 (testis, adherent) | 0.682 | 2.05 | 0.509 | 0.339 | 0.924 | > 10 | 0.982 | > 10.2 | 0.666 | 7.19 | – | – | 0.975 | > 10 | 0.687 | 4.16
PL-21 (acute myeloid leukaemia, suspension) | 0.133 | < 0.04 | 0.982 | > 5.12 | 0.855 | > 10 | 0.592 | 1.2 | 0.694 | 9.71 | – | – | 0.96 | > 10 | 0.786 | 10.2
RCC10RGB (kidney, adherent) | 0.759 | 7.79 | 0.451 | 0.207 | 0.972 | > 10 | 0.972 | > 10.2 | 0.889 | > 40 | 0.931 | > 5 | – | – | – | –
RL95-2 (endometrium, adherent) | 0.964 | > 10.2 | 0.661 | 0.892 | 0.802 | 4.86 | 0.974 | > 10.2 | 0.846 | 28.6 | – | – | 0.971 | > 10 | 0.946 | > 20
SK-N-DZ (neuroblastoma, adherent) | 0.96 | > 10.2 | 0.908 | > 5.12 | 0.946 | > 10 | 0.988 | > 10.2 | 0.937 | > 40 | – | – | 0.987 | > 10 | 0.873 | 18.9
SUP-B15 (lymphoblastic leukaemia, suspension) | 0.172 | 0.0685 | 0.266 | 0.0714 | 0.91 | > 10 | 0.905 | > 10.2 | 0.565 | 3.73 | 0.719 | 1.26 | – | – | – | –
SW954 (urogenital system, adherent) | 0.753 | 3.45 | 0.381 | 0.149 | 0.961 | > 10 | 0.908 | > 10.2 | 0.879 | > 40 | 0.852 | 3.94 | – | – | – | –
SW982 (soft tissue, adherent) | – | – | 0.621 | 0.698 | 0.977 | > 10 | 0.976 | > 10.2 | 0.796 | 19.4 | 0.677 | 0.994 | 0.922 | > 10 | 0.807 | 10.6
WSU-DLCL2 (B-cell lymphoma, suspension) | – | – | 0.993 | > 5.12 | 0.975 | > 10 | – | – | 0.791 | 14.8 | 0.805 | 2.02 | 0.952 | > 10 | 0.018 | < 0.0781
no-10 (glioma, adherent) | 0.71 | 2.9 | 0.803 | 3.26 | 0.979 | > 10 | 0.95 | > 10.2 | 0.871 | > 40 | – | – | 0.972 | > 10 | 0.893 | > 20
